# Whole data set: some 33,000 sequences, median “E-score (-0.5 to 0.5)” near -0.054, cut for the highest 2% near 0.35. Some of the results follow.
# Molecular target: T1, Stb5 (UniProt P38699)
# T1 sequence: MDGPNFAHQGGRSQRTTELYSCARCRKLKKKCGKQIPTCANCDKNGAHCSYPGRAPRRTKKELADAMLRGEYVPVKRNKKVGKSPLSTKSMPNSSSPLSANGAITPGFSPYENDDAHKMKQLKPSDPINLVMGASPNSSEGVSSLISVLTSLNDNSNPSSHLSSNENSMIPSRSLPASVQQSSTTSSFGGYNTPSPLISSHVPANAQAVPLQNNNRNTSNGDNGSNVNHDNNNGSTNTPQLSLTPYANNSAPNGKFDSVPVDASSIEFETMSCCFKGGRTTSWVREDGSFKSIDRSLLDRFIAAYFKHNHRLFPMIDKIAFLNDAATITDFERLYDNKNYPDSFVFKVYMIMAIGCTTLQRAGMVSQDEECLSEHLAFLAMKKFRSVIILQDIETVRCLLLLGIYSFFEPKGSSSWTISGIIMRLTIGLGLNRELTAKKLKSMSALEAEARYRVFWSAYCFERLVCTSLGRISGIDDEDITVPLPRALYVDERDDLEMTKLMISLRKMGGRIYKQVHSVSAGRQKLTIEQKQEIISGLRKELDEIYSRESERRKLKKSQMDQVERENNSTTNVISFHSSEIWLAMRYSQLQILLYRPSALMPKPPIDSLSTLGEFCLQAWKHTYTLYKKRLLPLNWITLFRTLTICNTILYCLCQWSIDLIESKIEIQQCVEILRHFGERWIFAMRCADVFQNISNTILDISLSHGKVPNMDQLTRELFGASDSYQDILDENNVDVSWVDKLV
# Test: PBM E-score (8-mer binding enrichment) (E-score (-0.5 to 0.5)); higher = stronger / more preferred TF binding; most listed sequences are background and not binding sites
# Settings: protein concentration: 200 nM; construct: GST-full length
# Outline: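 Using PURExpress in vitro transcription/translation, GST-tagged yeast transcription factors were made in full-length or DNA-binding-domain form. These were applied at about 100-200 nM to double-stranded universal all-10-mer Agilent arrays, and bound protein was detected with fluorescent anti-GST. Scans were normalised with masliner before the Universal PBM Analysis Suite assigned E-scores to ungapped eight-base words pooled with their reverse complements.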
row,Sequence,PBM E-score
1,CCGACTCG,0.177
2,AGATTTGG,-0.12
3,CACAACCA,0.0518
4,GAGTGGGC,0.0251
5,AATTCTGC,-0.0466
6,AAGCGGCG,0.349
7,AATAGTAT,0.0601
8,CAATGAAG,-0.163
9,CTATGTTC,-0.013
10,AACAGAGA,-0.0526
11,ATGGGGCC,0.00088
12,CCATCAAC,-0.0784
13,AGACCACT,-0.265
14,AATAAGTC,0.0443
15,GCCAGCGA,-0.203
16,ACACTAGC,-0.238
17,AACTTATT,0.0716
18,AACGGTTA,0.0607
19,CGGACACG,0.232
20,AACTGTAG,-0.188
21,AAGTATCC,0.00528
22,CGGGGGTC,0.26
23,AAATACAA,-0.0203
24,GCCTGTAC,-0.163
25,CACTTCGC,-0.171

row,Sequence,PBM E-score
1,CATGAAAA,-0.173
2,GGGAACCC,0.0613
3,CGACGAGA,-0.0598
4,CCGGCTCG,0.167
5,GTGCTACA,-0.0525
6,CATCTGCA,-0.164
7,GGATCCCC,0.165
8,CTTGGCCC,0.0302
9,AGCTTGTG,-0.264
10,GTTGCCCA,-0.0197
11,AGGATGAG,-0.289
12,ATTTAGCA,-0.104
13,TAGCAGAA,-0.165
14,TTCGAAAA,-0.112
15,CCTCTGGC,-0.0454
16,AGGGAGAC,-0.0822
17,ACGTGGAA,-0.111
18,AAGTAGTA,-0.15
19,ATACTCCC,0.339
20,ACCAAGAA,-0.104
21,CGCGAATC,-0.0438
22,AACACTGA,-0.293
23,GCAGAGCC,-0.159
24,CTATTGCC,0.281
25,GGGCTAAC,-0.0393

row,Sequence,PBM E-score
1,AACTCATC,-0.116
2,CGGCGTGC,0.109
3,AGAATCAA,-0.063
4,CCGTTCAA,0.264
5,AACGGAAG,0.00045
6,GTAATCCA,0.0117
7,CACGCTAG,-0.259
8,ACTCCATG,-0.0336
9,CCGAAACC,0.144
10,GTCATCAC,-0.147
11,AATATTAG,-0.137
12,GCCTCTCC,-0.285
13,GAACACAA,-0.31
14,ATCGCGCA,-0.213
15,AAGCCATC,-0.12
16,ATGCTGAA,-0.185
17,CAGCCGAC,0.146
18,ATTAGTTA,0.0189
19,CACGTCCA,-0.128
20,AGACCTGA,-0.123
21,TCCTTAGA,-0.114
22,AGACTATC,-0.205
23,ATTCAGTG,0.00016
24,TAGGGAGA,-0.107
25,AGGCGTGC,-0.128

row,Sequence,PBM E-score
1,AGCGCACG,0.0995
2,ACAGTAGG,-0.225
3,CGTCAGTA,-0.101
4,AAAACGAG,-0.18
5,CCGGCGAG,0.154
6,GAGGGAGC,-0.255
7,AGGTTTAA,-0.147
8,TGATATAA,0.0825
9,ATCCCCTG,0.0213
10,ACTGCTTG,-0.185
11,ACTACAGA,-0.0118
12,CTTCATAA,-0.00453
13,AATACCGC,0.454
14,CCACTAGG,-0.166
15,CATTGACC,0.0053
16,GGGTCCTA,-0.127
17,ACTTCCAT,-0.108
18,GGTCGCAC,0.237
19,CGACAACA,-0.0433
20,ATTTTCCA,-0.128
21,GCTGTGCC,-0.0383
22,CCAATAAG,-0.162
23,GAGCTACC,-0.0323
24,GAGAAGCC,0.0161
25,TGCCCGAA,-0.00042

row,Sequence,PBM E-score
1,GTATCCGA,0.0664
2,GAAGTCGC,-0.0322
3,CCACGGAA,0.128
4,ACGCCTTA,-0.0391
5,GGTATCGA,0.00137
6,CTAATGCC,0.285
7,ACCTCACG,0.0237
8,AGAGGATG,-0.0895
9,AACACAGG,-0.165
10,CGTGAACC,0.0987
11,CTTCGGTA,0.178
12,AGTTCGAA,0.0585
13,CACTGACC,0.00405
14,GTAACAAA,0.0447
15,CTCTCAAC,-0.102
16,GCCTCTTA,-0.172
17,AGGCTAAG,-0.0956
18,CGATTACC,0.178
19,CTTCGCTA,-0.183
20,AGACAAAT,-0.128
21,TCAGAGAA,-0.252
22,CATATAAG,-0.0781
23,ACCGTATC,0.262
24,CCTTTAAA,-0.0266
25,ACGTAAAA,-0.0505

row,Sequence,PBM E-score
1,GCGACGAA,-0.0446
2,AAGCAATG,-0.183
3,TAAGGCTA,-0.187
4,AAGAGATT,0.00068
5,ACCTTACA,-0.0752
6,CCGCACGC,0.0937
7,CCCTTGTC,-0.0955
8,ATAGTGCC,0.336
9,GGAGATAA,0.348
10,GGACGGTA,0.241
11,AGGACGAT,-0.296
12,CGCGCATA,0.112
13,AGGAACCG,0.0514
14,CACGCGAC,-0.0769
15,ATCGGAAT,0.15
16,GCCTGTCA,-0.152
17,CCTCTGGA,-0.0749
18,ACATAAGG,0.124
19,CCGTTCGC,0.194
20,AACTGACG,-0.0736
21,ACACCCTA,-0.276
22,AAGCAACC,0.0322
23,CCGCAGCC,0.17
24,AGTTGAAG,-0.196
25,CACATAAC,-0.0228

row,Sequence,PBM E-score
1,AACACATC,-0.258
2,GGTTACTA,0.0175
3,AGAGCGCT,-0.00185
4,ATCCGACG,0.263
5,GCATGTGA,-0.168
6,GTCGCATA,-0.0299
7,GACATGCA,-0.131
8,ATGGGTCG,0.019
9,CGACAGCA,0.11
10,CGACCTTC,0.159
11,AGGCCTTC,-0.101
12,ACCTGAGT,-0.0229
13,AGATACAG,-0.0448
14,ACTGGCAG,-0.162
15,GATCTCGA,-0.119
16,GCTCCTAA,-0.0203
17,AGGATCCC,-0.115
18,CCCTCGCA,-0.123
19,GGTCAAAC,-0.0028
20,GTCGGAAC,0.315
21,GCTCAGAA,-0.0656
22,GCAACTGA,-0.127

# — the supplement of paper PMC3334620
